# Assay results from the supplement of paper PMC6135742.
# “And” between values parts separate entries of the source, which are not always exact repeats. Equal values may be shown once. Where a name gives a salt, the structure may show the parent alone. ± gives the standard deviation of the averaged measurements. In all, about 2,600 compounds were measured (“total cell number (DAPI+ nuclei) relative to DMSO vehicle control”: median about -1.4, lowest 2% from about -23 on). This is one part of the list.
# Tested on: jimpy (Plp1 jimpy) mouse iPSC-derived oligodendrocyte progenitor cells
# Assay: total cell number (DAPI+ nuclei) relative to DMSO vehicle control (SDs above negative control mean); higher = more surviving cells
# Conditions: 10 µM; 3 days
row,Structure (SMILES),total cell number
1,COc1cc2c(cc1O)[C@@H](Cc1ccc(O)c(Oc3ccc(C[C@@H]4c5cc(OC)c(OC)cc5CCN4C)cc3)c1)N(C)CC2 [Daurisoline],-10
2,C[C@@H]1CN(c2c(F)c(N)c3c(=O)c(C(=O)O)cn(C4CC4)c3c2F)C[C@H](C)N1 [Sparfloxacin],-1.58
3,C[C@@H]1O[C@@H]1P(=O)(O)O [Phosphomycin disodium],-0.127
4,Cn1c(=O)c2[nH]c(-c3ccc(S(=O)(=O)O)cc3)nc2n(C)c1=O [8-(p-Sulfophenyl)theophylline],-1.13
5,CC#CCOC(=O)c1c(C)nc2sc3c(c2c1N)CCC(O)C3 (centres undefined),7.08
6,CCn1cc(C(=O)O)c(=O)c2cc(F)c(N3CCN(C)CC3)cc21 [Pefloxacin Mesylate],0.455
7,CCOC(=O)c1ccc(N2NC(=O)C(=Cc3ccc([N+](=O)[O-])o3)C2=O)cc1,-3.31
8,CCc1cc(C(N)=S)ccn1 [Ethionamide],1.31
9,Cc1ccc(C(=O)Nc2ccc(S(=O)(=O)O)c3cc(S(=O)(=O)O)cc(S(=O)(=O)O)c23)cc1NC(=O)c1cccc(NC(=O)Nc2cccc(C(=O)Nc3cc(C(=O)Nc4ccc(S(=O)(=O)O)c5cc(S(=O)(=O)O)cc(S(=O)(=O)O)c45)ccc3C)c2)c1 [Suramin sodium salt],-1.85
10,Cn1cc(C2=C(c3ccc(Cl)cc3Cl)C(=O)NC2=O)c2ccccc21,6.45 and 3.32
11,O=C(NC(NC(=S)Nc1ccc(F)c([N+](=O)[O-])c1)C(Cl)(Cl)Cl)C(c1ccccc1)c1ccccc1 (centres undefined),-15.7
12,OCc1ccc(O[C@@H]2O[C@H](CO)[C@@H](O)[C@H](O)[C@H]2O)cc1 [Gastrodin],-0.28
13,CCOc1cc2ncc(C#N)c(Nc3ccc(OCc4ccccn4)c(Cl)c3)c2cc1NC(=O)/C=C/CN(C)C [Neratinib (HKI-272)],-12.8
14,Cc1cccc(Nc2cc(Cl)nc(SCC(=O)O)n2)c1C,0.568
15,O=C(N/N=C/c1ccc([N+](=O)[O-])o1)c1ccc(O)cc1 [Nifuroxazide],-5.81
16,"Nc1ncnc2c1ncn2[C@@H]1O[C@H](COP(=O)(O)CP(=O)(O)OP(=O)(O)O)[C@H](O)C1O (stereo partly drawn) [alpha,beta-Methylene adenosine 5'-triphosphate dilithium]",-0.958
17,NC(=O)c1ncn([C@@H]2O[C@H](CO)[C@@H](O)[C@H]2O)c1O [Mizoribine],-0.0169
18,Cc1cn([C@@H]2C[C@@H](O)[C@H](CO)O2)c(=O)[nH]c1=O [Telbivudine],-1.69
19,C=C1/C(=C\C=C2/CCC[C@]3(C)[C@@H]([C@H](C)CCCC(C)(C)O)CC[C@@H]23)C[C@@H](O)C[C@@H]1O [Calcitriol],-4.55
20,Cc1ccc(/C(=C\CN2CCCC2)c2ccccn2)cc1 [Triprolidine hydrochloride],0.863
21,CCC[C@H](NC(=O)/C(C#N)=C/c1cccc(Br)n1)c1ccccc1 [Degrasyn (WP1130)],-15.2
22,Cc1c(Cl)cccc1Nc1ncccc1C(=O)O [Clonixin],-0.771
23,C[C@H]1[C@H](NC(=O)/C(=N\OC(C)(C)C(=O)O)c2csc(N)n2)C(=O)N1S(=O)(=O)O [Aztreonam],-0.402
24,OC[C@H]1O[C@@H](OCCc2ccc(O)cc2)[C@H](O)[C@@H](O)[C@@H]1O [Salidroside],1.45
25,CNCCC=C1c2ccccc2CCc2ccccc21 [Nortriptyline hydrochloride],-6.55

row,Structure (SMILES),total cell number
1,CCc1c2c(nc3ccc(OC(=O)N4CCC(N5CCCCC5)CC4)cc13)-c1cc3c(c(=O)n1C2)COC(=O)[C@]3(O)CC [Irinotecan],-11
2,CCc1c2c(nc3ccc(OC(=O)N4CCC(N5CCCCC5)CC4)cc13)-c1cc3c(c(=O)n1C2)COC(=O)[C@]3(O)CC [Irinotecan HCl Trihydrate],-6.85
3,C=CCN1CCc2c(cc(O)c(O)c2Cl)C(c2ccccc2)C1 (racemic) [(±)-Chloro-APB hydrobromide],-4.39
4,"CCCCCCN(CCCCCC)C(=O)Cc1c(-c2ccc(F)cc2)[nH]c2ccccc12 [N,N-Dihexyl-2-(4-fluorophenyl)indole-3-acetamide]",-0.886
5,CCN(CC)CCNC(=O)c1ccc(NC(C)=O)cc1 [N-Acetylprocainamide hydrochloride],1.57
6,[Cl-].[Li+] [Lithium Chloride],-0.282
7,CCn1cc(-c2ccnc3[nH]c(-c4cccc(CN(C)C)c4)cc23)c(-c2ccc(NC(=O)N(C)C)cc2)n1,-12.1
8,CCOc1ccn(-c2ccc(F)cc2)c(=O)c1C(=O)Nc1ccc(Oc2ccnc(N)c2Cl)c(F)c1,-2.97
9,CNC[C@H](O)c1cccc(O)c1 [Phenylephrine hydrochloride],-11.1
10,CNC[C@H](O)c1cccc(O)c1 [Phenylephrine HCl],-5.88
11,CC(=O)NNC(=O)N1Cc2ccccc2Oc2ccc(Cl)cc21,-1.06
12,N[C@@H]1CN(c2c(F)cc3c(=O)c(C(=O)O)cn([C@@H]4C[C@@H]4F)c3c2Cl)CC12CC2 [Sitafloxacin Hydrate],-4.79
13,COC(=O)c1ccc2c(c1)NC(=O)/C2=C(\Nc1ccc(N(C)C(=O)CN2CCN(C)CC2)cc1)c1ccccc1 [Nintedanib (BIBF 1120)],-23
14,O=C(O[C@@H]1Cc2c(O)cc(O)cc2O[C@@H]1c1cc(O)c(O)c(O)c1)c1cc(O)c(O)c(O)c1 [(-)-Epigallocatechin Gallate],-0.544
15,CC(C)C[C@H](NC(=O)CNC(=O)c1cc(Cl)ccc1Cl)B(O)O,-12.9
16,N#C[C@@H]1CCCN1C(=O)CNC12CC3CC(CC(O)(C3)C1)C2 [Vildagliptin (LAF-237)],-0.534
17,CC(C)C[C@H](NC(=O)[C@@H](O)[C@H](N)Cc1ccccc1)C(=O)O [Bestatin hydrochloride],-1.64
18,C=CCc1ccc(O)c(-c2ccc(O)c(CC=C)c2)c1 [Honokiol],1.57
19,CNC(=C[N+](=O)[O-])NCCSCc1ccc(CN(C)C)o1 [Ranitidine],-1.44
20,CNC(=C[N+](=O)[O-])NCCSCc1ccc(CN(C)C)o1 [Ranitidine hydrochloride],-0.923
21,O=C(O)CN(CCOCCOCCN(CC(=O)O)CC(=O)O)CC(=O)O,-0.161
22,COc1cc2c(cc1OC)-c1cc3ccc(OC)c(OC)c3c[n+]1CC2 [Palmatine chloride],4.91
23,COC(=O)[C@H]1[C@H]2C[C@@H]3c4[nH]c5cc(OC)ccc5c4CCN3C[C@H]2C[C@@H](OC(=O)c2cc(OC)c(OC)c(OC)c2)[C@@H]1OC [Reserpine],-6.23 ± 7.5
24,O=C(O)c1ccc(Nc2ncc3c(n2)-c2ccc(Cl)cc2C(c2c(F)cccc2F)=NC3)cc1,-13
25,Cc1cc(N2CCOCC2)ccc1Nc1nc(NC2CCCCC2)c2[nH]cnc2n1,-8.65

row,Structure (SMILES),total cell number
1,C[C@H](NC(=O)Cc1cc(F)cc(F)c1)C(=O)N[C@@H]1C(=O)N(C)c2ccccc2-c2ccccc21,-6.63
2,O=c1c(-c2ccc(O)cc2)coc2cc(O)cc(O)c12 [Genistein],-2.39 ± 0.072
3,OCc1ccc(-c2ccc(-c3ccc(CO)s3)o2)s1,-10.8
4,COc1cc(C=O)ccc1O [Vanillin],-0.142
5,C1=N/C2=N/c3ccc(OCCN4CCCC4)c(c3)COC/C=C/COCc3cccc(c3)C(=C1)N2 [Pacritinib (SB1518)],-16.5
6,COc1ccc2cccc(CCNC(C)=O)c2c1 [Agomelatine],-1.71 ± 1.9
7,C#C[C@]1(O)CC[C@H]2[C@@H]3CCc4cc(OC)ccc4[C@H]3CC[C@@]21C [Mestranol],5.55
8,CN(C)C(=O)c1ccc(S(=O)(=O)c2ccc(NC(=O)[C@@](C)(O)C(F)(F)F)c(Cl)c2)cc1,5.05
9,CC1=C(C)C(=O)C(CCCCC#CCCCC#CCO)=C(C)C1=O,-2.58
10,CN(CCOc1ccc(NS(C)(=O)=O)cc1)CCc1ccc(NS(C)(=O)=O)cc1 [Dofetilide],3.48 ± 2.1
11,CC(=O)N1CCN(c2ccc(OCC3COC(Cn4ccnc4)(c4ccc(Cl)cc4Cl)O3)cc2)CC1 (centres undefined) [Ketoconazole],1.11 ± 6.6
12,"Cc1[nH]c(/C=C2\C(=O)Nc3ccccc32)c(C)c1CCC(=O)O [TSU-68 (SU6668, Orantinib)]",-0.233
13,CCN(CC)CCCC(C)Nc1c2ccc(Cl)cc2nc2ccc(OC)cc12 (centres undefined) [Quinacrine dihydrochloride],-10.2
14,CCN(CC)CCCC(C)Nc1c2ccc(Cl)cc2nc2ccc(OC)cc12 (centres undefined) [Quinacrine 2HCl],-14.5
15,CC(C)(C)NS(=O)(=O)c1cncc(-c2cc(F)c3nc(N)nn3c2)c1,-0.735
16,O=C(O)P(=O)(O)O [Foscarnet Sodium],-2.79
17,COc1cc2ncnc(Nc3ccc(Cl)cc3F)c2cc1OC,-8.14
18,N#Cc1ccc2[nH]c(O)c(-c3ccc(CN4CCOCC4)cn3)c2c1,-10.6
19,Cc1ccc(C(=O)NCCCCCC(=O)Nc2ccccc2N)cc1,-9.09
20,CNc1cc(NS(=O)(=O)c2ccc(N)cc2)nc(NC)n1 [Ro 04-6790 dihydrochloride],0.996
21,Oc1ccc(Nc2nc(-c3ccc(Cl)cc3)cs2)cc1,-14.4
22,CCN(CC)CCn1c(=O)c(Cc2ccc(OC)cc2)nc2ccccc21 [Caroverine hydrochloride],-1.32
23,CO[C@H]1C[C@@H]2CC[C@@H](C)[C@@](O)(O2)C(=O)C(=O)N2CCCC[C@H]2C(=O)O[C@H]([C@H](C)C[C@@H]2CC[C@@H](O)[C@H](OC)C2)CC(=O)[C@H](C)/C=C(\C)[C@@H](O)[C@@H](OC)C(=O)[C@H](C)C[C@H](C)/C=C/C=C/C=C/1C [Rapamycin (Sirolimus)],-8.86
24,Nc1nc2ccc(Cl)cc2n2c(-c3ccccc3)nnc12,-0.857
